Out of some 110,000 compounds screened, about 230 (0.21%) showed an effect of 50% or more. This is one part of the list.
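Further: 30 min substrate incubation versus DMSO and 10 µM JCP410 controls.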

The experiment deals with DPAP1 (Plasmodium falciparum, UniProt Q8IIJ9). Description: primary screen, percent inhibition; read by cleavage of a fluorogenic dipeptide substrate; higher = more effect of the substance. On the set-up: species or system P. falciparum D10 trophozoite lysates; single well.
DPAP1, sequence (Q8IIJ9 whole entry, looked up): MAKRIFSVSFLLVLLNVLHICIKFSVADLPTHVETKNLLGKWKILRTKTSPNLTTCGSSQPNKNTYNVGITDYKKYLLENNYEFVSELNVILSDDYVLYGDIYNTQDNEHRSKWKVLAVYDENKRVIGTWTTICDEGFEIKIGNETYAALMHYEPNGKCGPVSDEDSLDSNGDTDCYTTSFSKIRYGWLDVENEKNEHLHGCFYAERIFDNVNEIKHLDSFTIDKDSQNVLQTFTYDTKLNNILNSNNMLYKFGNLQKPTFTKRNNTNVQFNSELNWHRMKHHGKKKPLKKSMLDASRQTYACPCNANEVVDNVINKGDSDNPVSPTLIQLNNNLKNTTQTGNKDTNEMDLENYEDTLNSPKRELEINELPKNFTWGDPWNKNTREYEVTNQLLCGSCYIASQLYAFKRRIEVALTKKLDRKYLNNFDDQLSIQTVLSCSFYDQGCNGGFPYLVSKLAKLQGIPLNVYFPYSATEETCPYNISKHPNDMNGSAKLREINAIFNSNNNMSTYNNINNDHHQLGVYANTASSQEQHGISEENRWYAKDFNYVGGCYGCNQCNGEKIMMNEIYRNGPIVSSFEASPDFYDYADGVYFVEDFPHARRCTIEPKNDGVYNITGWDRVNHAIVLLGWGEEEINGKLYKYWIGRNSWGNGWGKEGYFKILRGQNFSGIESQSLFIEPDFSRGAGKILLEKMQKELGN
In the case of `CCOCCCNC(=O)c1cc(OC)cc(OC)c1`, the “% Inhibition @ 10 uM” value was -8.49%.
As for `CCOC(=O)c1ccc2c(c1)C1C=CCC1C(c1ccc(Cl)cc1Cl)N2` (stereo not shown), the figure is -4.8%.
With `Cc1nn(-c2ccccc2)c(C)c1Sc1nnc(O)nc1O`, the “% Inhibition @ 10 uM” value is -2.6%.
As for `O=C(O)c1ccc(CS(=O)c2cccc(C(F)(F)F)c2)o1` (stereo not shown), the figure is 6.13%; as for `CC(C)(C)c1cc(C(C)(C)C)cc(S(=O)(=O)CCc2ccccn2)c1`, 1.7%.
Turning to `N#CC(C#N)=Cc1ccc(-c2ccc(Cl)cc2Cl)o1`, the “% Inhibition @ 10 uM” value worked out at 7.24%.
For `CCOc1ccc(NC(=O)C2CC(=O)N(CC)/C(=N\c3ccccc3)S2)cc1` (stereo not shown), the “% Inhibition @ 10 uM” value is -1.04%.
As for `O=S(=O)(c1ccccc1)n1nc(-c2ccco2)nc1NCc1cccs1`, the figure is -5.08%; as for `Cc1ccc(-n2nc(C(=O)O)cc2-c2ccccc2)cc1`, -1.33%; as for `Cc1cccc(N2C(=O)CC(N3CCN(Cc4ccccc4)CC3)C2=O)c1` (stereo not shown), 2.09%.
Next, `O=C(c1ccc(Oc2ccccc2)cc1)c1ccc(C(=O)c2ccc(Oc3ccccc3)cc2)cc1`: -1.45%.
`COc1ccc(NCCNc2ccc(OC)cc2)cc1`: the “% Inhibition @ 10 uM” value is on record as -1.69%.
Next, `O=[N+]([O-])c1ccc(Cl)c(CN2CCSCC2)c1`: -5.5%; `COc1ccc(N2CCN(C(=O)CN(Cc3ccccc3)S(C)(=O)=O)CC2)cc1`: -3.45%; `O=C(CSc1ccc(-c2cccs2)nn1)NCCc1ccccc1`: 3.54%.
For the compound `COc1ccc(N2C(=O)c3cccc([N+](=O)[O-])c3C2=O)cc1`, the “% Inhibition @ 10 uM” value came out at 3.32%.
As for `Cc1cc(NC(=O)c2ccc3c(c2)OCO3)n(Cc2ccc(F)cc2)n1`, the “% Inhibition @ 10 uM” value is reported as -3.34%.
As for `N#CC1=C(N)Oc2[nH]nc(-c3ccccc3)c2C1c1ccccc1F` (stereo not shown), the figure is -0.941%.
As to `COCCCNC(=O)c1c(C)c(-c2ccc(C)cc2)nc2ccccc12`, the “% Inhibition @ 10 uM” value is given as -2.69%.
Take `CCOc1cc(CNCc2c(C(=O)O)n(Cc3ccc(OC)cc3)c3ccccc23)ccc1OC`: the “% Inhibition @ 10 uM” value is listed as -4.99%.
As for `Cc1cc(-c2noc(Cn3nc(C)c(Br)c3C)n2)c2ccccc2n1`, the figure is 3.66%; as for `N#Cc1c(-c2ccc(-c3ccccc3)cc2)csc1N`, 16.7%.
Next, `CCOC(=O)CNc1nc(Cl)nc(NC(C)(C)C)n1`: 0.878%; `CCS(=O)(=O)c1nc(S(=O)(=O)c2ccc(Cl)cc2)c(NC2CCCCC2)s1`: -4.26%.
As for `Cc1[nH]nc2c1C(c1ccc(-c3cc(Cl)ccc3Cl)o1)C(C#N)=C(N)O2` (stereo not shown), the figure is 0.851%.
In the case of `COc1ccccc1Nc1nc(N)nc(CN2CCN(C)CC2)n1`, the “% Inhibition @ 10 uM” value was -2.29%.
Next, `CCOC(=O)c1cc(-c2ccccc2)n(-c2ccccc2C)n1`: -1.33%; `O=C(NCC1CCCO1)c1ccc(CS(=O)(=O)c2c(Cl)cccc2Cl)o1` (stereo not shown): -1.05%.

These data come from publication PMC6919601, “Identification of Plasmodium dipeptidyl aminopeptidase allosteric inhibitors by high throughput screening” (PLoS ONE, 2019).
